Reference: PubChem BioAssay AID651687 (Broad Institute, 2012)
The whole screen tested about 350,000 compounds, of which about 600 (0.17%) were called active. The inconclusive results got no clear call from the source; some entries with a clear call stand among them for comparison.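 The calls were made as follows: active = every replicate shows inhibition of at least 40%; inconclusive = mean inhibition at least 40% but some replicate below; inactive = the rest.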

Assay: inhibitors of PGC1a acetylation signal, primary screen, cell-based, U2OS, AlphaScreen, inhibitor mode (AID 651687);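 also: 0% = neutral control wells and 100% = positive control wells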
Settings: AlphaScreen anti-acetyl-lysine, at 15.6 µM, hits give high values, with virally co-expressed GCN5 acetyltransferase

| Compound | inhibition |
| --- | --- |
| O=C(CCC1CCN(Cc2ccccc2Cl)CC1)NC1CC1 | active: 94.6% |
| Cc1[nH]c(=O)c(C(=O)/C=C/c2ccccc2)c2c1CCCC2 | active: 53.2% |
| Cc1cccc(COc2ccc(/C=C3/C(=O)N(C)C(=S)N3C)cc2)c1 | active: 70.6% |
| COCC(=O)Nc1ccc2c(c1)OC[C@H](C)N(C(=O)c1ccccc1F)C[C@H](C)[C@H](OC)CN(C)C2=O | inconclusive: 42.9% |
| COc1ccc(OC)c(Nc2ccc(Nc3cc(OC)ccc3OC)nn2)c1 | inactive: -10.9% |
| CC1CC(=O)c2c(cc3c(-c4c(O)cc(O)c5c(O)c6c(cc45)OC(C)CC6=O)c(O)cc(O)c3c2O)O1 (stereo unspecified) | active: 63.4% |
| COc1ccc(C=C(C#N)c2ccc(OC)cc2)cc1 | inactive: -9.77% |
| CN(C)C(=O)C[C@H]1CC[C@H](NC(=O)C2CCC2)[C@@H](CO)O1 | inconclusive: 44.4% |
| CCOC(=O)N(C)C[C@H]1OCc2ccccc2-c2ccccc2C(=O)N([C@@H](C)CO)C[C@@H]1C | inactive: 0.728% |
| O=S1(=O)CC=C(CSC(=S)NC2CCS(=O)(=O)C2)C1 (stereo unspecified) | inconclusive: 47.2% |
| CC(C)Cc1nn2c(=O)cc(O)nc2s1 | inconclusive: 40.3% |
| Clc1ccc(-c2csc(N3CCSCC3)n2)cc1 | inconclusive: 44.6% |
| COc1ccc(/C=C/C(=O)Nc2ccccc2C(=O)N2CCCC2)cc1 | inactive: -0.723% |
| CC(C)C[C@H]1CNC(=S)N1CC1CCCN1C[C@H](Cc1ccccc1)N1C[C@H](Cc2ccc(O)cc2)N(CC2CCCCCC2)C1=S (stereo partly specified) | active: 50.6% |
| CCn1nccc1C(=O)Nc1ccccc1OC | inconclusive: 41.5% |
| C=CCNC(=O)c1ccc(CN2CCC(Cc3ccccc3)CC2)cc1 | inconclusive: 47.6% |
| O=C(Cn1ccc([N+](=O)[O-])n1)N1CCCc2ccccc21 | inactive: 2.8% |
| CN1CCN(/N=C/c2ccc(OCc3ccccc3)cc2)CC1 | inconclusive: 41.1% |
| C=C1CCN(c2ccc(C(=O)NCc3ccccc3)cc2[N+](=O)[O-])CC1 | inconclusive: 43.9% |
| CCN(CC)c1ccc(S(=O)(=O)N2CCOCC2)cc1NC(=O)Cn1nc(C)c([N+](=O)[O-])c1C | inconclusive: 47.5% |
| CCCCCCCCCCCCS[C@H]1CS(=O)(=O)C[C@@H]1O | inconclusive: 43.3% |

| Compound | inhibition |
| --- | --- |
| COc1cc2cc(CCOC(=O)CCCC(=O)O)oc(=O)c2cc1OC | inactive: 8.33% |
| Cc1nc(N(CCO)C2CCCCC2)c2nnn(Cc3ccccc3)c2n1 | inconclusive: 40.5% |
| CCOc1nc(NC(=O)NS(=O)(=O)c2ccccc2F)nc(-c2ccccc2)n1 | inconclusive: 49.9% |
| Nc1nnc(CC(=O)N/N=C/c2ccccc2OCc2ccc(F)cc2)s1 | active: 61% |
| COc1cc(C2Nc3cccc4cccc(c34)N2)cc(OC)c1OC(C)=O | inconclusive: 45% |
| O=C(c1ccco1)N1CCN(c2ncnc3scc(-c4cccs4)c23)CC1 | inconclusive: 45.4% |
| CCn1c(C(=O)NC2CCC(C)CC2)cc2sccc21 (stereo unspecified) | inconclusive: 44% |
| Cc1cccc(-n2c(CNC(=O)c3cccc([N+](=O)[O-])c3C)n[nH]c2=S)c1 | inconclusive: 45.7% |
| COc1ccc(-c2nc3ccccc3c(=O)o2)cc1OC | inconclusive: 49.2% |
| CCCCn1nc(NC(=O)c2cccs2)c2cc3ccccc3nc21 | inconclusive: 47.7% |
| C[C@H]([C@@H](N)C(=O)N[C@@H](C(=O)O)[C@@H]1O[C@H](n2ccc(=O)[nH]c2=O)[C@@H](O)[C@H]1O)[C@@H](O)c1ccc(O)cn1 | inconclusive: 45.6% |
| Cc1ccc(S(=O)(=O)Nc2ccc3c(c2)C(=O)N([C@H](C)CO)C[C@H](C)[C@H](CN(C)C(=O)NC(C)C)OCCCC[C@@H](C)O3)cc1 | inconclusive: 41.5% |
| CC(C)C[C@H]1CN=C(N(C)C)N1CCc1cccc(F)c1 | inactive: 3.41% |
| O=C(Nc1nc2ccsc2c(=O)s1)C1CCC1 | inconclusive: 65.2% |
| O=C(CC(CC(=O)c1ccc(Br)cc1)c1cccnc1)c1ccc(Br)cc1 | inconclusive: 50.3% |
| O=C(Nc1ccc(Cl)c(Cl)c1)N[C@@H]1CC[C@H](CCn2cc(C3CC3)nn2)O[C@H]1CO | inconclusive: 42.7% |
| Cc1[nH]nc2ncc(C(=O)c3ccccc3O)cc12 | active: 44.5% |
| O=C(CNC(=O)c1sc2ccccc2c1Cl)NCc1ccccc1 | inconclusive: 52.3% |
| O=C(Cc1ccccc1)N1N=C(c2ccncc2)CC1(O)C(F)(F)F (stereo unspecified) | inconclusive: 50% |
| COc1ccc(C(=O)Nc2ccc(S(=O)(=O)Nc3cc(C)nc(C)n3)cc2)cc1 | inconclusive: 43.1% |
| COc1ccc(S(=O)(=O)N[C@@H]2CC[C@H](CCNC(=O)c3ccccc3F)O[C@H]2CO)cc1 | inconclusive: 42.9% |

| Compound | inhibition |
| --- | --- |
| Cc1noc(/C=C/N(C)C)c1S(=O)(=O)N(C)CC(=O)NC1CCCCC1 | active: 43.2% |
| CCC(=O)N(C)C[C@@H]1Oc2cc(C#Cc3cccnc3)ccc2S(=O)(=O)N([C@H](C)CO)C[C@H]1C | inconclusive: 28.8% |
| O=S(=O)(c1cnccc1N1CCN(/N=C/c2ccccc2)CC1)N1CCCCC1 | inconclusive: 57% |
| C[C@@H]1CN([C@@H](C)CO)S(=O)(=O)c2ccc(C#CC3CCCCC3)cc2O[C@H]1CN(C)Cc1cccnc1 | inconclusive: 59.9% |
| O=C(NCC[C@H]1CC[C@@H](NS(=O)(=O)c2ccccc2)[C@H](CO)O1)c1cc(Cl)cc(Cl)c1 | inactive: -17% |
| Cn1cccc1CC(=O)N/N=C/c1cc([N+](=O)[O-])ccc1Cl | inconclusive: 46% |
| CC(C)(C)C1CCC(CN2C(Nc3ccccc3)=NC[C@@H]2Cc2ccccc2)CC1 (stereo partly specified) | inconclusive: 87.6% |
| CCCN(C)C[C@H]1Oc2cc(C#C[C@@H](C)O)ccc2S(=O)(=O)N([C@@H](C)CO)C[C@H]1C | inconclusive: 54.2% |
| O=C(c1ccc(F)cc1)N1CC(=O)N2[C@H](CO)[C@@H](c3ccc(C#CCC4CCCC4)cc3)[C@@H]2C1 | inconclusive: 48.8% |
| COc1cc(CNC(=O)Nc2nc(C(N)Cc3ccc(Cl)cc3)cs2)cc(OC)c1OC (stereo unspecified) | inactive: -0.901% |
| COc1cc(C(=O)O)ccc1Cl | inconclusive: 48.1% |
| Cc1ccccc1OCCNC(=O)CNC(=O)c1ccccc1O | inactive: -19.3% |
| CC(C)CCC1=NN(C(=O)c2ccco2)C(O)(C(F)(F)F)C1 (stereo unspecified) | inconclusive: 44.1% |
| COCC(=O)NCc1nc2ccccc2n1Cc1ccccc1F | inconclusive: 47.4% |
| O=C(CCCCCCC(=O)Nc1ccccc1)NO | inconclusive: 40% |
| C[C@H]1CCCCO[C@@H](CN(C)C(=O)c2ccncc2)[C@@H](C)CN([C@@H](C)CO)C(=O)c2cc(N(C)C)ccc2O1 | inactive: 18.5% |
| O=S(=O)(/C(=C\c1ccc(C(F)(F)F)cc1)c1nc2ccccc2[nH]1)c1ccccc1 | inconclusive: 59.8% |
| O=C(Nc1cccc2c1CCCC2)c1ccccc1Br | inconclusive: 50.3% |
| CC/C(=N\NC(=O)c1ccccc1Cl)c1ccc(Br)s1 | active: 82.8% |
| Cc1noc(C)c1S(=O)(=O)N(C)C[C@H]1Oc2ccc(NC(=O)Nc3ccccc3)cc2CC(=O)N([C@H](C)CO)C[C@H]1C | inconclusive: 55.7% |
| COc1ccccc1C#Cc1ccc([C@@H]2[C@H](C#N)N(C(=O)C3CCCCC3)[C@H]2CO)cc1 | inactive: -14.8% |

| Compound | inhibition |
| --- | --- |
| Cc1cccc(S(=O)(=O)N(C)C[C@@H]2OCc3cn(nn3)CCCC(=O)N([C@@H](C)CO)C[C@H]2C)c1 | inconclusive: 59.3% |
| Cc1ccccc1Nc1ncnc2c1cnn2-c1ccccc1 | inconclusive: 63.2% |
| O=C1C(N2CCOCC2)=C(n2nnc3ccccc32)C(=O)c2ccccc21 | active: 61.3% |
| Cc1nc2ccccc2c(=O)n1NC(=O)c1ccc(Cl)c([N+](=O)[O-])c1 | active: 44.8% |
| COc1ccc(C2CC2/C(C)=N/OC(=O)C2CC2)cc1 (stereo unspecified) | inactive: -2.09% |
| C[C@@H]1CN([C@H](C)CO)C(=O)c2cc(NC(=O)Cc3cn(C)c4ccccc34)ccc2O[C@H]1CN(C)Cc1ccc(Cl)c(Cl)c1 | inactive: 0.568% |
| O=C(COC(=O)Cc1ccc(S(=O)(=O)N2CCOCC2)s1)NCCc1ccccc1 | inconclusive: 40.7% |
| Cc1ccc(NC(=S)NNC(=O)c2nn(C)c(C)c2Cl)cc1 | inconclusive: 42% |
| COc1ccc(OC)c(CNS(=O)(=O)c2cc(-c3cc(C)no3)ccc2OC)c1 | active: 51.1% |
| O=C(c1ccccc1Cl)N1CCNCC1 | active: 66.6% |
| O=C(CN1CCOCC1)NCC[C@H]1CC[C@H](NC(=O)c2ccccc2F)[C@@H](CO)O1 | inactive: 1.24% |
| Cc1[nH]c(=O)[nH]c(=O)c1S(=O)(=O)Nc1ccc(F)c(Cl)c1 | inconclusive: 46.7% |
| CO[C@H]1CN(C)C(=O)c2ccc(NS(=O)(=O)c3ccccc3)cc2OC[C@@H](C)N(C(=O)NC(C)C)C[C@@H]1C | inconclusive: 51.7% |
| CC(=O)Nc1ccc(Oc2sc(C(=O)c3ccccc3)c(N)c2C#N)cc1 | inconclusive: 22.3% |
| C[C@H]1CN([C@@H](C)CO)C(=O)Cc2cc(NS(C)(=O)=O)ccc2O[C@H]1CN(C)S(=O)(=O)c1ccc(Cl)cc1 | inactive: -1.92% |
| O=C1CCCC(O)=C1N=Nc1ccc2c(c1)OCO2 | inconclusive: 46.8% |
| CC(C)C#Cc1cnc2c(c1)C(=O)N([C@H](C)CO)C[C@H](C)[C@H](CN(C)C(=O)CN1CCOCC1)O2 | inconclusive: 57.7% |
| Cc1cc(F)cc(-c2cc(C(=O)NCc3ccccc3)[nH]n2)c1 | inconclusive: 41.3% |
